The whole screen tested about 310,000 compounds, of which about 14,000 (4.5%) showed an effect of 50% or more. Effects have a minus sign here. Some of the results follow.
The compounds below were run against human ether-à-go-go-related gene (hERG) potassium channel (human, UniProt Q12809) (assay: primary screen, population patch clamp on CHO cells stably expressing hERG).
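Further: peak tail current of the secondary pulse compared with the same well before compound.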

human ether-à-go-go-related gene (hERG) potassium channel, sequence (Q12809 whole entry, looked up): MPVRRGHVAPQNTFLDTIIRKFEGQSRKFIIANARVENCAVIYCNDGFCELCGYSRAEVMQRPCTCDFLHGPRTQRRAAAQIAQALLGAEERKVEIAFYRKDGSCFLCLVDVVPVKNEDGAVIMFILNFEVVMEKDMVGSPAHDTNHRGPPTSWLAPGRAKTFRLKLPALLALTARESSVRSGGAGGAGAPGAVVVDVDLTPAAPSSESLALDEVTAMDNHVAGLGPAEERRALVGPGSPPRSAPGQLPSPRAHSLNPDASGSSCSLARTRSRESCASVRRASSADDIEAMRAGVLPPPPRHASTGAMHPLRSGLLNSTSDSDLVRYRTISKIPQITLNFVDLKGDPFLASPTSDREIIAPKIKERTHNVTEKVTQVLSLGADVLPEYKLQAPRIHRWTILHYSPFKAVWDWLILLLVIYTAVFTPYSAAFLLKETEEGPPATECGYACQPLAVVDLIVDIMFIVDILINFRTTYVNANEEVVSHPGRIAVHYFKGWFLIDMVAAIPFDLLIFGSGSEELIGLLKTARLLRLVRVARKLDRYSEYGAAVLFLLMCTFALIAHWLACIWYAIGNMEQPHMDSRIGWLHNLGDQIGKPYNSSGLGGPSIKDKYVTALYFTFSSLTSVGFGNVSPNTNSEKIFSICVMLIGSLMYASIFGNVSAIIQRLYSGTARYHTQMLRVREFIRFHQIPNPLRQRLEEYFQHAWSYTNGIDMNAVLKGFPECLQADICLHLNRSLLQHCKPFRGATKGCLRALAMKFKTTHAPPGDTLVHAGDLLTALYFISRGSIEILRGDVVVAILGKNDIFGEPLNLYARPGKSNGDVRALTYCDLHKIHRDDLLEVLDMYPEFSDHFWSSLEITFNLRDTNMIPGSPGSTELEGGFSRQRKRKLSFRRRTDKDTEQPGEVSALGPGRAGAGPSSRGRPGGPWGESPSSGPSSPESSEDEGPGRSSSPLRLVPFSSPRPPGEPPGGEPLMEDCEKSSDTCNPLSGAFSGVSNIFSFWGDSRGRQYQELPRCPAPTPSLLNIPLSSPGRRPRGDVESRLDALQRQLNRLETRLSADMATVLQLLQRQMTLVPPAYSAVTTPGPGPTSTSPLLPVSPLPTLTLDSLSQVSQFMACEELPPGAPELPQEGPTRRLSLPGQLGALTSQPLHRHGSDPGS

Row | Structure (SMILES) | hERG current change (%, negative = inhibition) at 10uM
1 | COc1ccc(Br)cc1CNC(=O)C1CCN(C(=O)N(C)C)CC1 | -6.15%
2 | CCCOc1ccc(C(=O)C(CN2CCCC2)c2ccccc2)cc1.Cl (centres unmarked) | -65.8%
3 | COc1ccc(C(=O)Cn2nnc(-c3ccccc3-n3cnnn3)n2)cc1 | -0.555%
4 | CCCCc1c(O)c2ccccc2n(CCCC)c1=O | 8.32%
5 | O=C(N/N=C/c1ccoc1)c1ccc(Br)cc1 | 9.74%
6 | NC(=O)c1ncc(C(F)(F)F)cc1Oc1cccnc1 | 20.5%
7 | Cc1cccc(-c2noc(CCCC(=O)NC3CCCC3)n2)c1 | 3.86%
8 | CCC(=O)c1cn(CC(=O)Nc2ccccc2)c2ccccc12 | 20.6%
9 | COc1ccc(C2CCCN2C(=S)Nc2ccc(C)c(C)c2)cc1OC (centres unmarked) | -12.8%
10 | CCN(CC(=O)Nc1ccc(NC(C)=O)cc1)C(=O)c1ccc(=O)n(C)n1 | 2.47%
11 | CCOC(=O)Nc1cccc2ccccc12 | 1.14%
12 | CN1/C(=C\C(=O)COC(=O)C2COc3ccccc3O2)C(C)(C)c2ccccc21 (centres unmarked) | 9.13%
13 | CC(C)c1ccc(O)c(NC(=O)c2cccnc2)c1 | 6.07%
14 | COc1ccc(/C=[N+](\[O-])C2N(c3ccccc3)C(=S)SC2(C)C)cc1OC (centres unmarked) | 8.73%
15 | Cc1ccc(N2N=C(C(=O)O)CCC2=O)cc1Cl | -45.2%
16 | CCOC(=O)[C@H]1[C@H]2COc3ccc(OC)cc3[C@@H]2N2C(=O)c3cc(C)ccc3NC(=O)[C@@]12C | -27.5%
17 | CC(=O)c1cccc(N(C(=O)CNC(=O)c2ccco2)C(C(=O)NC2CCCC2)c2ccc(C)o2)c1 (centres unmarked) | 6.93%
18 | COc1ccc2[nH]c(C)c(CCNCc3cc(OC)c(OC)c(OC)c3)c2c1 | 4.3%
19 | O=C(COC(=O)c1ccc2c(c1)OCCO2)NCc1ccccc1 | 18.4%
20 | CN(C)S(=O)(=O)c1cccc(C(=O)OCC(=O)N2c3ccccc3NC(=O)C2(C)C)c1 | 4.95%
21 | CC(C)(C)NC(=O)COC(=O)c1ccccc1Oc1ccccc1 | -1.2%
22 | Cc1ccc(S(=O)(=O)N2CCOCC2)cc1NC(=O)COC(=O)c1n[nH]c(=O)c2ccccc12 | 4.51%

Row | Structure (SMILES) | hERG current change (%, negative = inhibition) at 10uM
23 | CCCc1cc(=O)oc2cc(OCc3ccc(C(=O)O)cc3)ccc12 | 20.8%
24 | CCOc1ccc(-c2c(=O)n(OCc3nc4ccccc4[nH]3)c3ccccc3[n+]2[O-])cc1 | -9.25%
25 | O=C(N/N=C1\CCCc2ccccc21)c1ccccc1[N+](=O)[O-] | 1.85%
26 | COc1ccc(OC)c2c1sc(=NC(=O)C1CCCCC1)n2C | -7.43%
27 | O=C1c2cc3ccccc3c(-c3ccccc3)c2C(=O)N1c1ccccn1 | 2.17%
28 | O=C(NCCc1ccc(Cl)cc1)C1CCCN1C(=O)Nc1ccccc1 (centres unmarked) | -11.5%
29 | Cn1cnnc1SCC(=O)Nc1cc(C(F)(F)F)ccc1N1CCOCC1 | -15.6%
30 | Cc1nn(Cc2ccc(Cl)cc2)c(C)c1NC(=O)c1cc(-c2ccco2)on1 | -5.66%
31 | Cc1ccc(N(Cc2ccco2)C(=O)c2cccc(S(=O)(=O)N(C)C)c2)cc1 | -21.5%
32 | O=C(Cn1c(=O)oc2cc(S(=O)(=O)N3CCOCC3)ccc21)N1CCc2ccccc2C1 | 4.76%
33 | O=C(O)c1ccc2c(c1)C(=O)N(c1ccc([N+](=O)[O-])cn1)C2=O | 19.5%
34 | COc1ccccc1CNC(=O)C(NC(=O)c1ccccc1C)C(C)C (centres unmarked) | 10.2%
35 | CC(=O)NCC(=O)NC(C(=O)Nc1ccc2c(c1)OCCO2)c1ccc(C)cc1 (centres unmarked) | 16.8%
36 | COc1ccc(N2C(=O)CC(c3ccc([N+](=O)[O-])cc3)C2=O)cc1 (centres unmarked) | -0.178%
37 | COc1cc(C(=O)OC(C)C(=O)NC(=O)NC2CCCCC2)ccc1OC(F)F (centres unmarked) | -51.2%
38 | COc1ccc2nc3oc(C(=O)N4CCN(c5cccc(Cl)c5)CC4)cc3cc2c1 | -5.8%
39 | COCCn1c(CN(C)Cc2ccccc2)nc2c1c(=O)n(C)c(=O)n2C | -6.15%
40 | O=C(Nc1ccc(F)cc1)c1ccc(CN2CCc3ccccc3C2)cc1 | 7.03%
41 | COc1cc(OC)c(OC)cc1CN1CCN(c2ccccc2OC)CC1 | -31.1%
42 | Nc1nnc(SCC(=O)Nc2cccc(S(=O)(=O)N3CCOCC3)c2)s1 | 24.1%
43 | O=S(=O)(c1ccccc1)N1CCCC1c1cccs1 (centres unmarked) | -2.26%
44 | CCn1nc(NC(=O)Cc2ccc(OC)cc2)c2cc3cc(C)ccc3nc21 | 4.97%
